# Hit rate of the full screen: of about 360,000 compounds, about 16,000 (4.4%) were called active. Inconclusive means that the source gave no clear call. Such entries were picked first, then a sample of the others. The call rests on the fitted dose curve; in most records, active means well fitted inhibition curve with a large enough effect; inconclusive means small, poorly fitted or top-dose-only effect; inactive means no such curve, though single readings can be large or run the other way. A potency beside an inconclusive call is a rough fit, not a confirmed value.
# Molecular target: Bromodomain adjacent to zinc finger domain protein 2B (Homo sapiens) (UniProt Q9UIF8)
# Experiment: qHTS Assay for Inhibitors of BAZ2B; further: nearly all actives have a fitted effect of over 60% in size
# Conditions: AlphaScreen BAZ2B-H3K14Ac peptide displacement; series mostly up to 114 µM
# Outline: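 Protein-peptide AlphaScreen: BAZ2B 50 nM, b-H3K14Ac 50 nM, 1x PBS pH 7.4 + 0.01% Tween-20. Preincubation 30 min RT; cpd 30 min RT (top 110 uM); beads 20 min RT, light-protected.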
# Potency means the concentration at half of the fitted maximal effect; tags describe the fitted curve by direction and shape.
# Sequence of UniProt Q9UIF8 (Q9UIF8 whole entry, looked up, the tested form may be a part): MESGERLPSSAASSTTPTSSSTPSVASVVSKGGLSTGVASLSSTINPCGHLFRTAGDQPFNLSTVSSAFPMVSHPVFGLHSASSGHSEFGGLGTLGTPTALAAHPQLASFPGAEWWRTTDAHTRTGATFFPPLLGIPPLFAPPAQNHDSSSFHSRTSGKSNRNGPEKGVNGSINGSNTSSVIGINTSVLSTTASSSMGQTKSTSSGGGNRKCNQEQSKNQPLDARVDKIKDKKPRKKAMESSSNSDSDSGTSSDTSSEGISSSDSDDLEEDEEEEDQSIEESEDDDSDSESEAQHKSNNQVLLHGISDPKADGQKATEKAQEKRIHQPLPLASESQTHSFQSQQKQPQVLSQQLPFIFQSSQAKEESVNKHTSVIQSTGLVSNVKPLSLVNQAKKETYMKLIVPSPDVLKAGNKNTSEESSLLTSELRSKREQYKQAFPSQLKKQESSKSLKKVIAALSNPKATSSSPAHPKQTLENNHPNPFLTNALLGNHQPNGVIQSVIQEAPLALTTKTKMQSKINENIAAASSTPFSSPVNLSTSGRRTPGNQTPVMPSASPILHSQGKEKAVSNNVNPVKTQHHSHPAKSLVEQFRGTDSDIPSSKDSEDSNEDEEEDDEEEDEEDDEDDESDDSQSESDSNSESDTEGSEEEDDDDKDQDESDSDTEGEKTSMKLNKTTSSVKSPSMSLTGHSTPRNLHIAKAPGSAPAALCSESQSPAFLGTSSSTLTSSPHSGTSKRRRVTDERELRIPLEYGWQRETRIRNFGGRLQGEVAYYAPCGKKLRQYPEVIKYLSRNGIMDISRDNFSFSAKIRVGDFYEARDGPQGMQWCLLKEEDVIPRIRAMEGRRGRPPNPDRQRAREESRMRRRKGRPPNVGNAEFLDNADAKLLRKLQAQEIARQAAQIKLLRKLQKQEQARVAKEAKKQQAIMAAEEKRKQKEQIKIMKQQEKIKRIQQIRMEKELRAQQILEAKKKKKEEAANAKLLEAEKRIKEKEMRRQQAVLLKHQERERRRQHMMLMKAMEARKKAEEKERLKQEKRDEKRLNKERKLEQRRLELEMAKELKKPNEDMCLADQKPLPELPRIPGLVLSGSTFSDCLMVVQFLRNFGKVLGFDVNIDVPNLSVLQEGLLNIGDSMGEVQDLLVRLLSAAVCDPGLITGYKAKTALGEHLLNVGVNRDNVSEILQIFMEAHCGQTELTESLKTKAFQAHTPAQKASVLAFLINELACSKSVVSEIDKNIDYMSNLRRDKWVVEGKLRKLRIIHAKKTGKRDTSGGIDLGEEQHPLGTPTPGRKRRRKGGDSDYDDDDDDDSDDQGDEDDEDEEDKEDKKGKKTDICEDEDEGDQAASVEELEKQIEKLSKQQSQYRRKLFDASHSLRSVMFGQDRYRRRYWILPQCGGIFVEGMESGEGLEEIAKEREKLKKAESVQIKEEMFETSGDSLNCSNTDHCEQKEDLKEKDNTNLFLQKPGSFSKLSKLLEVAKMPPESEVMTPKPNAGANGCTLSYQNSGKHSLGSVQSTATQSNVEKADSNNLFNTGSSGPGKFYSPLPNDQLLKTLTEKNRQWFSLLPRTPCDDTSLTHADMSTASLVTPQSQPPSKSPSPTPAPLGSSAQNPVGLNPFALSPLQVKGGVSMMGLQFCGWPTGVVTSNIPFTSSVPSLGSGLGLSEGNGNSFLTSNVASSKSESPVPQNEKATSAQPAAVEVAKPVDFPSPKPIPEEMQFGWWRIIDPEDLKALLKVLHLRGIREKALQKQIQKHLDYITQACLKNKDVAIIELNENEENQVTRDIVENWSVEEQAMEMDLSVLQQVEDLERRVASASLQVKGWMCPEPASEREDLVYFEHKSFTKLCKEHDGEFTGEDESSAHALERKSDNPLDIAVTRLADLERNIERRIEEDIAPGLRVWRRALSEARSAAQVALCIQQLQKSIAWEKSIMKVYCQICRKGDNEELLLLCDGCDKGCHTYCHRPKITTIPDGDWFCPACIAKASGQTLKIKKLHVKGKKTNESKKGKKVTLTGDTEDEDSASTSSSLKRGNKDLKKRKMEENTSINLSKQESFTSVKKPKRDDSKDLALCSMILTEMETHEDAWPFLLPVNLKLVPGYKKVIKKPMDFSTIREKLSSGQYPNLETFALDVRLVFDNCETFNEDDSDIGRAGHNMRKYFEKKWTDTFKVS
row,Structure (SMILES),Potency
1,CC(C)(C)c1ccc(O)c(N=Cc2c(O)ccc3ccccc23)c1,active: 39.8 µM
2,Cc1ccccc1C(=O)Nc1sc2c(c1C(=O)O)CCC(C(C)(C)C)C2 (centres undefined),"inconclusive: 70.8 µM [inhibitor, single point]"
3,OCCNc1c2c(nc3ccccc13)CCCC2,inactive
4,Oc1ccc(Cl)cc1CN1CCN(Cc2ccccc2)CC1,"inconclusive: 89.1 µM [inhibitor, single point]"
5,COc1ccccc1CN1CCCC(C(=O)c2ccccc2SC)C1 (centres undefined),inactive
6,CNC(=O)c1cccn(Cc2ccc(C(F)(F)F)cc2)c1=O,inactive
7,BrCC1C[n+]2c(SCc3ccccc3)nc3sc4c(c3c2O1)CCCC4 (centres undefined),"inconclusive: 79.4 µM [inhibitor, partial curve]"
8,CCCCc1ccc(C(=O)O)nc1,active: 3.98 µM
9,O=C1C(=O)N(c2nccs2)C(c2ccccc2)/C1=C(\O)c1ccc2c(c1)OCCO2 (centres undefined),"inconclusive: 35.5 µM [inhibitor, full curve, poor fit]"
10,CN(C)C(=O)Oc1ccc(C(=O)c2ccccc2)cc1,inactive
11,O=C(O)Cn1cc(/C=C2\C(=O)NC(=O)N(c3ccc(Cl)cc3)C2=O)c2ccccc21,"inconclusive: 89.1 µM [inhibitor, single point]"
12,C[N+]12CCC(CC1)C(C(O)(c1cccc(Cl)c1)c1cccc(Cl)c1)C2 (centres undefined),"inconclusive: 89.1 µM [inhibitor, single point]"
13,CN(C)[C@@H]1C(=O)C(C(N)=O)=C(O)[C@@]2(O)C(=O)C3=C(O)c4c(O)ccc(Cl)c4[C@@](C)(O)C3C[C@@H]12 (some centres undefined),active: 44.7 µM
14,Cc1cc(/C=C2/C(=O)NC(=O)N(Cc3ccco3)C2=O)c(C)n1-c1ccccc1,"inconclusive: 39.8 µM [inhibitor, full curve, poor fit]"
15,CCCCN1C(=O)/C(=C/c2ccc(N(C)C)cc2)C(=O)N(Cc2ccco2)C1=O,"inconclusive: 22.4 µM [inhibitor, single point]"
16,COc1cc(CNCCc2ccc3c(c2)OCO3)cc(OC)c1OC,active: 56.2 µM
17,O=C1NC(=O)N(c2cccc(F)c2)C(=O)/C1=C/c1ccc(N2CCOCC2)cc1,inactive
18,CCOC(=O)c1c(NC(=O)C(c2ccccc2)c2ccccc2)sc2c1C1CCN2CC1,"inconclusive: 14.1 µM [inhibitor, partial curve]"
19,O=C1NC(=O)C(CCc2ccncc2)(CCc2ccncc2)C(=O)N1CCc1ccc(F)cc1,inactive
20,Cc1cccc(C2CC(=O)Oc3c2c(=O)oc2ccccc32)c1 (centres undefined),"inconclusive: 89.1 µM [inhibitor, single point]"
21,Cn1c(O)c(/C=C/C=Nc2ccccc2)c(=O)n(C)c1=S,inactive
22,O=C1NC(=S)N(C2CC2)C(=O)/C1=C/c1ccc2c(c1)CCN2CCCCl,active: 31.6 µM
23,CC(c1ccccc1)n1cncc1C(=O)N1CCCC1=O (centres undefined),"inconclusive: 89.1 µM [inhibitor, single point]"
24,O=C(N/N=C/c1c(O)n(CCc2ccccc2)c(=O)[nH]c1=O)c1ccncc1,active: 56.2 µM
25,Cc1ccccc1[N+](=O)[O-],inactive

row,Structure (SMILES),Potency
1,CCCC/C(C)=C/[C@@H](NP(=O)(c1ccccc1)c1ccccc1)c1ccccc1,inactive
2,CCOc1ccc(CN(CCc2ccc3c(c2)OCO3)Cc2cccc(C)c2)cc1,"inconclusive: 100 µM [inhibitor, single point]"
3,O=P(Oc1ccccc1)(Oc1ccccc1)c1ccccc1,active: 0.891 µM
4,COc1cc(CN2CCN(C(=O)COc3ccccc3)CC2)cc(OC)c1OC,"inconclusive: 89.1 µM [inhibitor, single point]"
5,Oc1cccc2cccnc12,active: 10 µM
6,COc1ccccc1N1CCN(Cc2cccc(OC)c2O)CC1,active: 50.1 µM
7,CCOC(=O)C1CCN(/C=C2/C(=O)NC(=O)N(Cc3ccco3)C2=O)CC1,"inconclusive: 89.1 µM [inhibitor, single point]"
8,COc1cc(CN2CCc3nc(N4CCN(c5ccccn5)CC4)ncc3C2)cc(OC)c1OC,active: 50.1 µM
9,CN1C(=O)NC(=O)/C(=C/c2ccc([N+](=O)[O-])s2)C1=O,active: 50.1 µM
10,COc1ccc(C(=O)NCCn2cc(SC(C)c3ccccc3)c3ccccc32)cc1OC (centres undefined),"inconclusive: 35.5 µM [inhibitor, partial curve]"
11,CN1CC(C(=O)c2ccc([N+](=O)[O-])cc2)C(c2ccc(Cl)cc2)C1 (centres undefined),"inconclusive: 39.8 µM [inhibitor, partial curve]"
12,COc1ccc2[nH]cc(CCNCc3cccnc3)c2c1,"inconclusive: 79.4 µM [inhibitor, single point]"
13,CCN(CC)C(=O)c1ccc(NC(=O)COc2ccccc2F)cc1,"inconclusive: 89.1 µM [inhibitor, single point]"
14,Cc1cccc(CN2CCCC(C(=O)c3ccc(C(F)(F)F)cc3)C2)n1 (centres undefined),"inconclusive: 79.4 µM [inhibitor, single point]"
15,Cc1ccc2c(c1)C1CN(C)CCC1N2C(=O)Cc1cccs1 (centres undefined),inactive
16,CC(=O)C1C2c3ccccc3O[C@@]1(C)N=c1s/c(=C/c3ccoc3)c(=O)n12 (some centres undefined),"inconclusive: 50.1 µM [inhibitor, partial curve]"
17,COc1ccc(CCN2CCC(CNC(=O)c3cnn(-c4ccc(C)cc4)c3C3CCN(C(=O)OC(C)(C)C)CC3)CC2)cc1,"inconclusive: 39.8 µM [inhibitor, single point]"
18,O=C(O)c1ccccc1C(=O)O,"inconclusive: 89.1 µM [inhibitor, single point]"
19,Cc1ccccc1Nc1c(-c2ccc(Br)cc2O)nc2sccn12,active: 22.4 µM
20,CN1CCCCC1c1ccc(-c2cccnc2)nc1 (centres undefined),"inconclusive: 79.4 µM [inhibitor, single point]"
21,O=[N+]([O-])c1cnc2ccc3ccccc3c2c1,"inconclusive: 39.8 µM [inhibitor, partial curve]"
22,CCOC(=O)c1cccc(NC2c3ccccc3C(=O)N2Cc2ccco2)c1 (centres undefined),"inconclusive: 50.1 µM [inhibitor, partial curve]"
23,Cc1cc(C=C2C(=O)NC(=O)NC2=O)c(C)n1-c1cccnc1,inactive
24,Brc1ccc2[nH]cc(/C=N/N3CCCCC3)c2c1,active: 44.7 µM
25,CN(C)/C=C1/C(=O)NC(=O)N(CCNc2ncc(C(F)(F)F)cc2Cl)C1=O,"inconclusive: 89.1 µM [inhibitor, partial curve]"

row,Structure (SMILES),Potency
1,Clc1ccc(N2CCN(Cc3ccccc3Cl)CC2)cc1,"inconclusive: 31.6 µM [inhibitor, single point]"
2,N#Cc1c(/N=C/c2c(O)n(Cc3ccco3)c(=O)[nH]c2=O)sc2c1CCCC2,"inconclusive: 89.1 µM [inhibitor, single point]"
3,O=C(O)c1cccc2c1NC(c1cccc([N+](=O)[O-])c1)C1CC(Sc3ccccc3[N+](=O)[O-])C(Cl)C21 (centres undefined),active: 22.4 µM
4,CN1Cc2cccnc2N(C)Cc2cc(Cl)ccc21,"inconclusive: 44.7 µM [inhibitor, partial curve]"
5,Cc1ccc(C)c(CN2C(=O)c3ccccc3S(=O)(=O)c3ccc(C(=O)N4CCCCCC4)cc32)c1,"inconclusive: 79.4 µM [inhibitor, partial curve]"
6,CCc1ccc(/C=C(/C#N)C(N)=S)cc1,"inconclusive: 44.7 µM [inhibitor, partial curve]"
7,c1cncc(C2CCCCN2Cc2ccc3c(c2)OCO3)c1 (centres undefined),"inconclusive: 79.4 µM [inhibitor, single point]"
8,O=C(NCc1ccccn1)c1ccccc1Cl,"inconclusive: 56.2 µM [inhibitor, partial curve]"
9,CCCCn1c(=O)c(C(=O)Nc2cccc(C)c2)c(O)c2ccccc21,"inconclusive: 89.1 µM [inhibitor, single point]"
10,CCCCn1c(O)c(C=NC2CCCCC2N)c(=O)[nH]c1=O (centres undefined),"inconclusive: 100 µM [inhibitor, single point]"
11,Clc1cccc(CNCCc2ccc3c(c2)OCO3)c1,active: 79.4 µM
12,COc1cc2c3cc1Oc1cc(ccc1O)C[C@@H]1c4c(cc(OC)c(O)c4Oc4ccc(cc4)C[C@H]3N(C)CC2)CCN1C,active: 44.7 µM
13,Cc1ccc(N=Nc2cc(C)ccc2N)cc1,active: 7.94 µM
14,CCC(C)n1c(O)c(/C=N/NC(=O)c2ccncc2)c(=O)[nH]c1=S (centres undefined),active: 56.2 µM
15,O=C(Cn1ncc2c3ccccc3n(Cc3ccc(F)cc3)c2c1=O)N1CCC2(CC1)OCCO2,inactive
16,Nc1ncc([N+](=O)[O-])s1,inactive
17,O=C(COc1ccc(Br)cc1)N1CCN(Cc2ccc3c(c2)OCO3)CC1,active: 50.1 µM
18,COc1ccc2[nH]cc(CCN)c2c1,"inconclusive: 70.8 µM [inhibitor, single point]"
19,C[N+]1(CC(O)c2ccccc2)CCCCCC1 (centres undefined),active: 79.4 µM
20,Cc1nn(C)c(C)c1P(=S)(c1c(C)nn(C)c1C)N(C)C,inactive
21,COC1=CC(=O)OC(/C=C/c2ccccc2)C1 (centres undefined),"inconclusive: 89.1 µM [inhibitor, single point]"
22,O=C(c1ccc(Cl)cc1)C1CCCN(Cc2ccc3c(c2)OCCO3)C1 (centres undefined),"inconclusive: 79.4 µM [inhibitor, single point]"
23,C[C@]12CC(=CO)C(=O)C[C@@H]1CC[C@@H]1[C@@H]2CC[C@@]2(C)[C@H]1CC[C@]2(C)O,"inconclusive: 79.4 µM [inhibitor, single point]"
24,CCN(CC)c1ccc(/C=C2/C(=O)NC(=O)N(CC3CCCO3)C2=O)cc1 (centres undefined),"inconclusive: 89.1 µM [inhibitor, single point]"

# Reference: PubChem BioAssay AID504333 (National Center for Advancing Translational Sciences (NCATS), 2011)
